{"source": "paper PMC12820563", "about": "“FoxP3 forms a head-to-head dimer in vivo and stabilizes its multimerization on adjacent microsatellites”", "note": "The other results are listed elsewhere or left out.", "data": [{"biological_target": "T1, MBP-FoxP1dN (Mus musculus, UniProt P58462 326-579)", "T1 sequence": "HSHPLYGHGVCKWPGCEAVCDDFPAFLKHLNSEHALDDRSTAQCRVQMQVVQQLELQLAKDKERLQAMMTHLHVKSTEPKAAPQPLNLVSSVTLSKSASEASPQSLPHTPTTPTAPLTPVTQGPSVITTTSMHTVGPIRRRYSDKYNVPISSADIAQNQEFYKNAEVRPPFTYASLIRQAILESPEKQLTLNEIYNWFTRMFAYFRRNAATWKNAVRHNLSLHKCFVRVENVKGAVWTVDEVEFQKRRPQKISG", "assay": "PD-seq (MBP pull-down with sequencing); 20 mM Tris-HCl pH 7.5, 100 mM NaCl, 1.5 mM MgCl2, 0.4 uM protein, 0.1 uM dsDNA library, 30 min, room temperature, amylose pull-down; high values mean tight binding", "details": "protein: recombinant; tags: His6-MBP; chain copies: 2; dsDNA, one strand shown", "outline": "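The N-terminus-lacking fragment of mouse FoxP3 or FoxP1 carried a His6-MBP tag and was expressed in E. coli. At 0.4 µM it was incubated with 0.1 µM Klenow-filled degenerate double-stranded DNA library for 30 min at room temperature in Tris pH 7.5 buffer with NaCl and MgCl2, and complexes were caught on amylose resin, washed three times, released with proteinase K, PCR-barcoded and Illumina-sequenced. Binding is reads-per-million enrichment of pull-down over input with replicates pooled.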", "values": [{"sequence": "GATGATTGTTCTCCCAGCTGATGAATTCCGCCCATCGAGTAAACAAATTTTCCTAATCTTTCTGTTCAAGCGCCATCTAC", "binding signal": "0.788 RPM ratio (pull-down/input)"}, {"sequence": "GATGATTGTTCTCCCAGCTGATGAATTTGGTTTGTCGAGTAAACAAATTTTCCTAATCTTTCTGTTCAAGCGCCATCTAC", "binding signal": "1.15 RPM ratio (pull-down/input)"}, {"sequence": "GATGATTGTTCTCCCAGCTGATGAATTCATCACTTCGAGTAAACAAATTTTCCTAATCTTTCTGTTCAAGCGCCATCTAC", "binding signal": "0.937 RPM ratio (pull-down/input)"}, {"sequence": "GATGATTGTTCTCCCAGCTGATGAATTATGCGTCTCGAGTAAACAAATTTTCCTAATCTTTCTGTTCAAGCGCCATCTAC", "binding signal": "1.04 RPM ratio (pull-down/input)"}, {"sequence": "GATGATTGTTCTCCCAGCTGATGAATTGACACACTCGAGTAAACAAATTTTCCTAATCTTTCTGTTCAAGCGCCATCTAC", "binding signal": "1.26 RPM ratio (pull-down/input)"}, {"sequence": "GATGATTGTTCTCCCAGCTGATGAATTGATGACATCGAGTAAACAAATTTTCCTAATCTTTCTGTTCAAGCGCCATCTAC", "binding signal": "1.34 RPM ratio (pull-down/input)"}, {"sequence": "GATGATTGTTCTCCCAGCTGATGAATTCATGCGCTCGAGTAAACAAATTTTCCTAATCTTTCTGTTCAAGCGCCATCTAC", "binding signal": "0.945 RPM ratio (pull-down/input)"}, {"sequence": "GATGATTGTTCTCCCAGCTGATGAATTACATTTGTCGAGTAAACAAATTTTCCTAATCTTTCTGTTCAAGCGCCATCTAC", "binding signal": "1.38 RPM ratio (pull-down/input)"}, {"sequence": "GATGATTGTTCTCCCAGCTGATGAATTTTCCATCTCGAGTAAACAAATTTTCCTAATCTTTCTGTTCAAGCGCCATCTAC", "binding signal": "0.91 RPM ratio (pull-down/input)"}, {"sequence": "GATGATTGTTCTCCCAGCTGATGAATTTGGAAGGTCGAGTAAACAAATTTTCCTAATCTTTCTGTTCAAGCGCCATCTAC", "binding signal": "0.791 RPM ratio (pull-down/input)"}, {"sequence": "GATGATTGTTCTCCCAGCTGATGAATTTGACGCATCGAGTAAACAAATTTTCCTAATCTTTCTGTTCAAGCGCCATCTAC", "binding signal": "1.1 RPM ratio (pull-down/input)"}, {"sequence": "GATGATTGTTCTCCCAGCTGATGAATTAGTATCATCGAGTAAACAAATTTTCCTAATCTTTCTGTTCAAGCGCCATCTAC", "binding signal": "1.22 RPM ratio (pull-down/input)"}, {"sequence": "GATGATTGTTCTCCCAGCTGATGAATTCGGCTGGTCGAGTAAACAAATTTTCCTAATCTTTCTGTTCAAGCGCCATCTAC", "binding signal": "0.77 RPM ratio (pull-down/input)"}, {"sequence": "GATGATTGTTCTCCCAGCTGATGAATTCCGGTCCTCGAGTAAACAAATTTTCCTAATCTTTCTGTTCAAGCGCCATCTAC", "binding signal": "0.772 RPM ratio (pull-down/input)"}, {"sequence": "GATGATTGTTCTCCCAGCTGATGAATTTGCGCCCTCGAGTAAACAAATTTTCCTAATCTTTCTGTTCAAGCGCCATCTAC", "binding signal": "0.91 RPM ratio (pull-down/input)"}, {"sequence": "GATGATTGTTCTCCCAGCTGATGAATTACAGTCCTCGAGTAAACAAATTTTCCTAATCTTTCTGTTCAAGCGCCATCTAC", "binding signal": "0.999 RPM ratio (pull-down/input)"}, {"sequence": "GATGATTGTTCTCCCAGCTGATGAATTCCTCTTTTCGAGTAAACAAATTTTCCTAATCTTTCTGTTCAAGCGCCATCTAC", "binding signal": "0.976 RPM ratio (pull-down/input)"}, {"sequence": "GATGATTGTTCTCCCAGCTGATGAATTTGGCTACTCGAGTAAACAAATTTTCCTAATCTTTCTGTTCAAGCGCCATCTAC", "binding signal": "0.949 RPM ratio (pull-down/input)"}, {"sequence": "GATGATTGTTCTCCCAGCTGATGAATTCAACCGATCGAGTAAACAAATTTTCCTAATCTTTCTGTTCAAGCGCCATCTAC", "binding signal": "0.857 RPM ratio (pull-down/input)"}, {"sequence": "GATGATTGTTCTCCCAGCTGATGAATTGGACGTATCGAGTAAACAAATTTTCCTAATCTTTCTGTTCAAGCGCCATCTAC", "binding signal": "0.961 RPM ratio (pull-down/input)"}, {"sequence": "GATGATTGTTCTCCCAGCTGATGAATTTCCGAAATCGAGTAAACAAATTTTCCTAATCTTTCTGTTCAAGCGCCATCTAC", "binding signal": "0.949 RPM ratio (pull-down/input)"}, {"sequence": "GATGATTGTTCTCCCAGCTGATGAATTCCTACGGTCGAGTAAACAAATTTTCCTAATCTTTCTGTTCAAGCGCCATCTAC", "binding signal": "0.765 RPM ratio (pull-down/input)"}, {"sequence": "GATGATTGTTCTCCCAGCTGATGAATTTGATGATTCGAGTAAACAAATTTTCCTAATCTTTCTGTTCAAGCGCCATCTAC", "binding signal": "0.978 RPM ratio (pull-down/input)"}, {"sequence": "GATGATTGTTCTCCCAGCTGATGAATTTGGTAACTCGAGTAAACAAATTTTCCTAATCTTTCTGTTCAAGCGCCATCTAC", "binding signal": "0.906 RPM ratio (pull-down/input)"}, {"sequence": "GATGATTGTTCTCCCAGCTGATGAATTCCTAAGCTCGAGTAAACAAATTTTCCTAATCTTTCTGTTCAAGCGCCATCTAC", "binding signal": "0.799 RPM ratio (pull-down/input)"}, {"sequence": "GATGATTGTTCTCCCAGCTGATGAATTTAGAATTTCGAGTAAACAAATTTTCCTAATCTTTCTGTTCAAGCGCCATCTAC", "binding signal": "0.998 RPM ratio (pull-down/input)"}, {"sequence": "GATGATTGTTCTCCCAGCTGATGAATTAGGTCCATCGAGTAAACAAATTTTCCTAATCTTTCTGTTCAAGCGCCATCTAC", "binding signal": "0.933 RPM ratio (pull-down/input)"}, {"sequence": "GATGATTGTTCTCCCAGCTGATGAATTAACTGGCTCGAGTAAACAAATTTTCCTAATCTTTCTGTTCAAGCGCCATCTAC", "binding signal": "0.808 RPM ratio (pull-down/input)"}, {"sequence": "GATGATTGTTCTCCCAGCTGATGAATTCTCACAGTCGAGTAAACAAATTTTCCTAATCTTTCTGTTCAAGCGCCATCTAC", "binding signal": "0.875 RPM ratio (pull-down/input)"}, {"sequence": "GATGATTGTTCTCCCAGCTGATGAATTAGTCAGTTCGAGTAAACAAATTTTCCTAATCTTTCTGTTCAAGCGCCATCTAC", "binding signal": "0.921 RPM ratio (pull-down/input)"}, {"sequence": "GATGATTGTTCTCCCAGCTGATGAATTTGCCATTTCGAGTAAACAAATTTTCCTAATCTTTCTGTTCAAGCGCCATCTAC", "binding signal": "1.13 RPM ratio (pull-down/input)"}, {"sequence": "GATGATTGTTCTCCCAGCTGATGAATTAGGCTAGTCGAGTAAACAAATTTTCCTAATCTTTCTGTTCAAGCGCCATCTAC", "binding signal": "0.833 RPM ratio (pull-down/input)"}]}]}
